Measurements: the supplement of paper PMC3334620
Whole data set: some 33,000 sequences, median “E-score (-0.5 to 0.5)” near -0.032, cut for the highest 2% near 0.36. This is one part of the list.

target: T1, Sko1 (UniProt Q02100); assay: PBM E-score (8-mer binding enrichment) (E-score (-0.5 to 0.5)); higher = stronger / more preferred TF binding; most listed sequences are background and not binding sites; conditions: protein concentration: 200 nM; construct: GST-full length
T1 sequence: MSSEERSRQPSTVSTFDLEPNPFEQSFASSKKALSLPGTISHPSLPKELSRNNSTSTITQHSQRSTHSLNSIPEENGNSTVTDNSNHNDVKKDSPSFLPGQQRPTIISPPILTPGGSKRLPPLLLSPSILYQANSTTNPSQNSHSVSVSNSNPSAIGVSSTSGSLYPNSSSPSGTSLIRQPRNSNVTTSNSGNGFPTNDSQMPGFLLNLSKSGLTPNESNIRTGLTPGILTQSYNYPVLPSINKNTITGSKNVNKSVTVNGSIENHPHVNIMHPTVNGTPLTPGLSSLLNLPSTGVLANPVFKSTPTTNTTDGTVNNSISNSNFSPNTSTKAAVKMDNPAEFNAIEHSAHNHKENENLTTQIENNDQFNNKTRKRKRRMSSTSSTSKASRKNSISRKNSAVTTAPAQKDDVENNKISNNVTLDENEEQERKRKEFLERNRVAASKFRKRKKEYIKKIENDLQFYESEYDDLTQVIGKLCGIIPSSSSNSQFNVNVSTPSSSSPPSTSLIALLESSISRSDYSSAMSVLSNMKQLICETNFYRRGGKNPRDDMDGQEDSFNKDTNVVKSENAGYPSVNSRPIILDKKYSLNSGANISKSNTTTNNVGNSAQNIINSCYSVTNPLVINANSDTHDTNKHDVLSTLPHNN
In short: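 Detection of bound protein used fluorescent anti-GST, with scans normalised by masliner. The proteins were GST-tagged yeast transcription factors applied at about 100-200 nM to universal all-10-mer Agilent arrays made double-stranded by primer extension. Each ungapped eight-base word, pooled with its reverse complement, was scored with an E-score from the Universal PBM Analysis Suite.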

Row | Sequence | PBM E-score
1 | AACGACGT | 0.411
2 | CACGAAGG | -0.0146
3 | CCCCTAAC | -0.194
4 | CCCGGCGA | -0.223
5 | CATCACAG | 0.17
6 | CTATCTTC | 0.129
7 | GCAAACGA | 0.136
8 | ACGCGAGA | 0.131
9 | GAAGCGGA | -0.235
10 | AGGACTAT | -0.222
11 | GAGCAAAC | -0.0519
12 | GTTCGAAA | 0.114
13 | AAGTTTTA | 0.142
14 | ATAGGTTC | -0.0831
15 | AACCCCCT | -0.333
16 | CTTATGAA | -0.0245
17 | TACAGTAA | 0.201
18 | CGTTATCA | 0.26
19 | ATTACATG | 0.324
20 | ATGACGGG | 0.338
21 | CATGGAAG | 0.148
22 | AAAGTAGC | -0.0666
23 | AAGCAATC | 0.00763
24 | ACTCTGTA | 0.082
25 | GTGGGGTA | -0.0573

Row | Sequence | PBM E-score
26 | GAGGTTGC | -0.116
27 | AGAACTCC | -0.207
28 | TGTTCGAA | -0.0402
29 | AACATGAA | 0.0776
30 | ACTCGTTG | 0.0164
31 | GAAATCGA | -0.131
32 | CCCTTCGA | -0.331
33 | AGCTTCAA | -0.06
34 | AGAATCCT | -0.296
35 | TAGTGTCA | 0.147
36 | AAGACAGC | -0.16
37 | ATTTTAAC | -0.0019
38 | ATTCACCC | -0.196
39 | TCCCGGAA | -0.263
40 | GGAATTAC | 0.212
41 | CTCGTTTC | 0.0206
42 | CCGTAATA | 0.288
43 | CGAGGCAC | -0.224
44 | CGAGAGAA | -0.105
45 | TACGTTGA | 0.38
46 | CGCTCTCA | -0.0854
47 | AATAGGAT | 0.111
48 | TCAATCGA | 0.167
49 | ATCCCAAA | -0.136
50 | AGAAACAG | -0.138

Row | Sequence | PBM E-score
51 | CAGAGTGG | -0.0194
52 | AGACGCCT | -0.0417
53 | CATTAGGG | -0.146
54 | AAAGTAGT | 0.113
55 | GATTACCA | -0.00744
56 | ACGTAGTG | 0.452
57 | ACATCACA | 0.313
58 | AACTACTA | 0.124
59 | GCGTCAGA | 0.364
60 | GCCGATTA | 0.00424
61 | CCAGGCCC | -0.257
62 | ATTGCCCC | -0.164
63 | CCTACTAC | -0.0403
64 | TAACTGGA | -0.102
65 | GCCGTGCA | -0.22
66 | GGCCTACC | -0.208
67 | ATGAGTAC | 0.0497
68 | CCTAGGTC | -0.153
69 | AACTTTTA | 0.254
70 | CCTCGTAC | 0.0527
71 | CTGTCAAG | -0.125
72 | GCTTTACC | 0.137
73 | CCTCAAAA | -0.0851
74 | CTGACAAG | -0.11
75 | GGAACCCC | -0.386

Row | Sequence | PBM E-score
76 | CTAATATA | 0.302
77 | AAGACGCC | -0.165
78 | AGGCCAGG | -0.292
79 | ATCAAAAG | 0.0595
80 | CACCTGCA | -0.167
81 | GTAGCCGA | -0.0119
82 | ACCCTTTC | -0.0379
83 | ACAGACGC | -0.0185
84 | GCCTCGTA | 0.124
85 | GAACGTGA | 0.175
86 | CATGCTAA | 0.0633
87 | GACGCTCC | -0.174
88 | GGGCGCCC | -0.19
89 | CGTCGGAG | 0.0505
90 | CTAATGCA | 0.166
91 | CACGTCTC | 0.134
92 | ATAAACCG | -0.0645
93 | GCCTGAAA | 0.00192
94 | GCGCACCC | -0.124
95 | ACACACGG | -0.0648
96 | AACCGACC | -0.143
97 | GAATAACC | -0.126
98 | ATGCTGAG | -0.255
99 | CAACGCAG | -0.0699
100 | ACTGGTCT | -0.0908

Row | Sequence | PBM E-score
101 | CGCAGTTA | 0.141
102 | AATAAGCC | -0.0119
103 | CCGCCTGA | -0.201
104 | ATGAGCAT | 0.121
105 | CAGGTTTA | -0.124
106 | AGCGATGA | 0.0693
107 | ATGAGAAA | 0.0845
108 | TAAGACGA | 0.0713
109 | CAGATATC | -0.0291
110 | ACAAAGTC | -0.174
111 | ACGGTGCC | -0.0731
112 | ACTAGACT | -0.176
113 | AGTGTCAA | 0.00645
114 | ACCTAGGT | -0.136
115 | CCCGCACG | -0.0484
116 | CCGCTGAC | -0.0713
117 | AGTGAAAA | -0.0882
118 | GAATCACC | -0.00243
119 | GTATCGCA | -0.113
120 | CGGGACCG | -0.299
121 | ATATGTAA | 0.258
122 | ATAATGGG | 0.0168
123 | CAAGATAA | 0.06
124 | CGGACGAC | -0.165
125 | ACTCCGTA | -0.113

Row | Sequence | PBM E-score
126 | AGACCAGC | -0.405
127 | AGAGATCA | -0.0141
128 | CTGTAATC | -0.174
129 | ATCGAAAT | 0.0953
130 | ACGGAACT | 0.0989
131 | CAAGTTCG | -0.0747
132 | ATCGACTA | 0.0892
133 | CAAGATGA | -0.0617
134 | TAACGGGA | -0.0567
135 | ACCCAAGG | -0.186
136 | TATCAGCA | 0.0232
137 | GCTCCGAC | -0.252
138 | ATTCTGCA | 0.175
139 | ATCTGGGC | -0.286
140 | ATGCGCCA | -0.00554
141 | AGACGTTC | 0.125
142 | ACCTAAAG | -0.0362
143 | CCAAACCG | -0.149
144 | GTCAAGAC | -0.0149
145 | GACCGCAC | -0.214
146 | TGGCACCA | -0.236
147 | CTTATCGC | -0.124
148 | ACGGTTCC | -0.193
149 | ATTGTGGG | -0.197
150 | GCAGTCCA | -0.187

Row | Sequence | PBM E-score
151 | AGCGCGAT | -0.0488
152 | AAGGTCTG | -0.134
153 | ATTTCGCA | 0.2
154 | CCAATTCG | 0.0345
155 | AGTAAGCC | -0.266
156 | CGTAAGTA | 0.354
157 | AGATAAGC | 0.0674
158 | CTCACATC | -0.0468
159 | CCCAAAGG | -0.114
160 | CAACCAAA | 0.00349
161 | AGGGAGAA | -0.143
162 | ACAAGTAG | -0.189
163 | AACTCTAC | -0.0391
164 | CCACTACA | 0.0711
165 | CCTCTTAA | -0.0534
166 | CATTGCTA | 0.2
167 | AAATGCGC | 0.13
168 | GTGCAATA | 0.122
169 | AACCGTTA | -1e-05
170 | GACCCATA | 0.043
171 | GATAATGA | 0.252
172 | AGGTGTCC | -0.2
